The campaign covered roughly 310,000 compounds. About 18,000 (5.8%) were called active. The inconclusive results got no clear call from the source; some entries with a clear call stand among them for comparison. The call rests on the fitted dose curve; in most records, active means well fitted inhibition curve with a large enough effect; inconclusive means small, poorly fitted or top-dose-only effect, or another doubt; inactive means no such curve, though single readings can be large or run the other way. No potency is given beside an inconclusive call; the fits are too rough.
Assay: Primary qHTS for delayed death inhibitors of the malarial parasite plastid, 48 hour incubation
Settings: P. falciparum luciferase growth in erythrocytes; series mostly up to 28.7 µM
Summary of the method: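 Luciferase-expressing parasites in RBCs, 2% Hct / 0.1% parasitemia final; RPMI 1640 + 0.5% Albumax; 37 C, 5% CO2, one generation; luminescence read-out, lower signal = inhibition.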
Potency means the concentration at half of the fitted maximal effect; tags describe the fitted curve by direction and shape.

SMILES | Potency
CCC1CCCCN1CCCNC(=O)c1ccc(N2CCOCC2)c(NS(=O)(=O)c2ccc(OC)cc2)c1 (configuration not stated) | inactive
CC(=O)Nc1cccc(C2=CC(c3ccco3)n3ncnc3N2)c1 (configuration not stated) | inactive
COc1ccc(NC(=O)NCCCN2CCN(c3cc(C)ccc3C)CC2)cc1 | inconclusive [inhibitor, partial curve]
CCN(CC)C1CCN(C(=O)CCc2nnc(CCc3ccccc3)o2)C1 (configuration not stated) | inactive
Cc1cc(Cc2cc(C)c(N)cc2C)c(C)cc1N | inconclusive [inhibitor, partial curve, poor fit]
CC(C)CCSc1nc2[nH]ncc2c(=O)[nH]1 | inconclusive [inhibitor, single point]
COc1ccc(CNc2nc3ccccc3n2Cc2ccc(Cl)cc2)cc1OC | inconclusive [inhibitor, partial curve, poor fit]
O=C1c2[nH]nc(-c3ccccc3O)c2C(c2ccc(F)cc2)N1CC1CCCO1 (configuration not stated) | inconclusive [inhibitor, partial curve, poor fit]
Cc1ccc([C@@H]2C[C@H]3CN(Cc4cccc(Cl)c4)C(=O)[C@]34CCCN24)o1 | inconclusive [inhibitor, partial curve]
CC(COc1ccccc1)N1CCC(CO)(Cc2ccccc2)CC1 (configuration not stated) | inconclusive [inhibitor, single point]
COc1ccc(C(CNC(=O)c2ccc(S(=O)(=O)N3CCOCC3)cc2)N2CCCCC2)cc1 (configuration not stated) | inconclusive [inhibitor, single point]
Cc1ccc(O)c([C@H](CCN(C(C)C)C(C)C)c2ccccc2)c1 | active: 1.69 µM
O=C(Nc1cccc(S(=O)(=O)N2CCOCC2)c1)c1ccc2ccccc2n1 | inconclusive [inhibitor, single point]
CN(CC(=O)NCc1ccncc1)S(=O)(=O)c1ccc2ccccc2c1 | inactive
Clc1ccccc1Oc1cnc2ccccc2n1 | active: 2.62 µM
COc1ccc2c(c1)[C@H]1[C@H](CO2)[C@H](c2ccccc2)[C@]2(C)C(=O)Nc3ccccc3C(=O)N12 | inconclusive [inhibitor, partial curve, poor fit]
CC(=O)C1=C(C)NC(SCc2cccc3ccccc23)=C(C#N)C1c1ccco1 (configuration not stated) | active: 10.4 µM
C=CCN(CC=C)C(=S)NC(=O)/C=C/c1ccc(C)cc1 | inactive
O=C(CNC(=O)Cc1ccccc1)NCc1cccs1 | inactive
COc1ccc(NS(=O)(=O)c2cc(NC(=O)CCNC(C)=O)ccc2N2CCCCC2)cc1 | active: 9.28 µM
CCOc1ccccc1NC(=O)c1ccc(OCC)c([N+](=O)[O-])c1 | inactive
COc1cccc(CN(C)C(=O)CSC(C)C(=O)Nc2cc(C)on2)c1OC (configuration not stated) | inconclusive [inhibitor, single point]
CN(Cc1ccccc1)C(=O)c1cccc(N2C(=O)NC3CC2(C)Oc2ccccc23)c1 (configuration not stated) | inconclusive [inhibitor, partial curve]
CC(C(=O)Nc1ccccc1C#N)N1C(=O)NC2(CCCCCC2)C1=O (configuration not stated) | inactive

SMILES | Potency
OC1CC(c2ccco2)NC2(CCCCC2)C1 (configuration not stated) | inactive
C[C@@]12C(=O)N(CCc3c[nH]c4ccccc34)CC(=O)N1[C@H]1c3ccccc3OC[C@@H]1[C@@H]2c1ccccc1 | active: 11.7 µM
Cc1ccc(C(C(=O)NCc2ccccc2)N(C(=O)c2ccccn2)c2ccccc2)o1 (configuration not stated) | inconclusive [inhibitor, single point]
O=[N+]([O-])c1cc(F)c(N2CCCC2)cc1Br | inconclusive [inhibitor, partial curve, poor fit]
COc1ccccc1C1CCN(C(=O)c2ccc(C(C)(C)C)cc2)CC1 | active: 11.7 µM
O=C(O)c1ccc2c(=O)n3c(nc2c1)/C(=C/c1cccc(Cl)c1Cl)CC3 | inconclusive [inhibitor, partial curve]
COc1ccc(/C(N)=N/OC(=O)CC2CCCCC2)cc1OC | inconclusive [inhibitor, single point]
O=C1[C@H]2[C@@H](C(=O)N1c1cccc3ccccc13)C1(C(=O)c3ccccc3C1=O)N1CCC[C@@H]21 | inconclusive [inhibitor, full curve, poor fit]
COc1ccc(OC)c(S(=O)(=O)N/N=C\c2c[nH]c3ccccc23)c1 | inactive
COc1ccc(C2=NCC(=O)N(CC(=O)NCc3ccco3)c3sc4c(c32)CCCC4)cc1 | inconclusive [inhibitor, single point]
N#Cc1cc2c(nc1SCC(=O)N1CCCCC1)CCCCC2 | inactive
CSc1ncc(Cl)c(C(=O)NCc2cccnc2)n1 | inactive
CCCC(=O)Nc1cc(-c2nc3ncccc3o2)ccc1Cl | inactive
O=[N+]([O-])/C(C(Cl)=C(Cl)Cl)=C(/Sc1ccccc1)N1CCCCC1 | inconclusive [inhibitor, single point]
COCCNC(=S)N1CCN(S(C)(=O)=O)CC1 | inactive
CCN(CC)CC(=O)Nc1ccc(C)cc1C(=O)c1ccccc1 | inconclusive [inhibitor, single point]
CCCC[n+]1ccn(C2=C([O-])c3ccccc3C(=O)/C2=N\S(=O)(=O)c2ccc(Br)cc2)c1 | active: 3.29 µM
Cn1c(C(=O)N2CCN(c3cccc(C(F)(F)F)c3)CC2)cc2sccc21 | inactive
c1ccc(-n2nnnc2SCc2cccc(CSc3nnnn3-c3ccccc3)n2)cc1 | inconclusive [inhibitor, partial curve, poor fit]
COc1cccc(C2c3c(oc4ccc(F)cc4c3=O)C(=O)N2CCN2CCOCC2)c1OC (configuration not stated) | inconclusive [inhibitor, partial curve, poor fit]
CCc1ccc(CCC(=O)Nc2ncc(Cc3ccccc3Cl)s2)o1 | inactive
CCOC(=O)C1=C(C)Nc2nc3ccccc3n2C1c1ccncc1 (configuration not stated) | inconclusive [inhibitor, partial curve, poor fit]
CN(C)c1ccc2c(c1)Sc1cc(N(C)C)ccc1N2C(=O)c1ccccc1 | active: 3.7 µM
O=C(CN1CCN(CC(=O)Nc2cccc(F)c2)CC1)NCC1(N2CCOCC2)CCCCC1 | inconclusive [inhibitor, single point]

SMILES | Potency
O=C(Cc1ccccc1)NNC(=O)Cc1ccccc1 | inactive
CN=c1scc(-c2cccs2)n1/N=C/c1ccc(O)c(O)c1O | inconclusive [inhibitor, single point]
C/C(Cl)=C\Cn1c(Nc2ccc(C)cc2)nc2c1c(=O)n(C)c(=O)n2C | inconclusive [inhibitor, single point]
C=CCc1ccccc1OCC(O)CNC(C)C (configuration not stated) | active: 13.5 µM
CN(Cc1ccccc1)C(=O)CSc1nnc(-c2ccco2)n1-c1ccccc1 | inconclusive [inhibitor, partial curve, poor fit]
Cc1cc(=O)oc(C)c1C(=O)n1nc(C)c2c1C[C@@H]1[C@H]2C1(C)C | inconclusive [inhibitor, single point]
CC(Sc1nnc(-c2ccco2)o1)C(=O)NCCC1=CCCCC1 (configuration not stated) | inconclusive [inhibitor, single point]
Cc1ccc(C)c(NP(=O)(Oc2ccccc2)Oc2ccccc2)c1 | inconclusive [inhibitor, single point]
O=C(Nc1ccc(S(=O)(=O)N2CCCC2)cc1)c1cccs1 | inconclusive [inhibitor, single point]
CCc1cc2c(s1)NC(=O)CN=C2c1cccs1 | inconclusive [inhibitor, single point]
Cc1ccccc1CC1(CO)CCCN(C(=O)c2ccccc2N(C)C)C1 (configuration not stated) | inconclusive [inhibitor, single point]
Cc1cccc(N2CCN(C(=O)C3CCN(S(=O)(=O)N4CCOCC4)CC3)CC2)c1C | inactive
CCCCCN(C(=O)CCC(=O)OCCOc1ccc(OC)cc1)c1c(N)n(CCCC)c(=O)[nH]c1=O | inconclusive [inhibitor, single point]
CCOC(=O)c1cc(C)sc1NC(=O)C(c1ccccc1)c1ccccc1 | inconclusive [inhibitor, single point]
Cn1c(CCN2CCCCCC2)nc2cc(NC(=O)Nc3ccccc3)ccc21 | active: 3.29 µM
CCOC(=O)c1c(-c2ccccc2)oc2cc(Br)c(O)c(C=O)c12 | active: 9.28 µM
COc1cccc(C(=O)c2c[nH]c(C(=O)NCc3ccco3)c2)c1 | inactive
Cc1ccc(S(=O)(=O)NCC(=O)N(CC(=O)NCc2ccco2)Cc2cccs2)cc1 | inactive
CC(=O)Nc1sc2c(c1C(N)=O)CCCC2 | inactive
COc1cc(C(C)=O)ccc1COc1ccc(C(=O)OCC(N)=O)cc1OC | inconclusive [inhibitor, single point]
CCCNS(=O)(=O)c1cccc(C(=O)OCc2cc(=O)oc3cc(OC)ccc23)c1 | inconclusive [inhibitor, single point]
O=C(NC1CCCCCC1)C(=S)NCc1ccccc1 | inactive
N#Cc1ccc(CN2CCN(C(=O)c3ccccc3)CC2)c(Cl)c1 | inactive
Fc1ccc2[nH]c3c(c2c1)CN(C(=S)NCc1ccccc1)CC3 | inconclusive [inhibitor, partial curve]

From PubChem BioAssay AID504832 (National Center for Advancing Translational Sciences (NCATS), 2011)
